# In PubChem BioAssay AID1466 (National Center for Advancing Translational Sciences (NCATS), 2008):
# Hit rate of the full screen: of about 200,000 compounds, about 10 (0.005%) were called active. Inconclusive means that the source gave no clear call. Such entries were picked first, then a sample of the others. Calls come from the whole dose curve; as a rule, active = well fitted inhibition curve with a large enough effect; inconclusive = small, poorly fitted or top-dose-only effect, or effect the other way, or another doubt; inactive = no such curve, though single readings can be large or run the other way. Potencies of inconclusive entries are left out as doubtful fits.
# Molecular target: Lysosomal alpha-glucosidase (Homo sapiens) (UniProt P10253)
# Assay: qHTS Assay for Inhibitors of Human alpha-Glucosidase as a Potential Chaperone Treatment of Pompe Disease;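 for activity change, negative = inhibition: plate controls were uninhibited enzyme wells for no effect and no-enzyme background for full effect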
# Conditions: purified human GAA, 4-MU-alpha-glucoside fluorescence; activity change, negative = inhibition: at 76.9 µM (top of the series) unless noted
# How it was run: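 qHTS format, compound range up to 77 uM. Human lysosomal enzyme at 4 nM, 400 uM 4-MU glucoside substrate, pH 5.0, 20 min room temperature; fluorescence after alkaline stop gives activity normalized to controls.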
# Potency is the fitted concentration of half-maximal effect; tags give direction and shape of the fitted curve.
SMILES,Potency,"activity change, negative = inhibition"
O=c1[nH]c2ccccc2nc1NCCN1CCOCC1,"inconclusive [inhibitor, full curve, poor fit]",–
CCC(=O)c1ccc(N2CCC(C)CC2)c(F)c1,"inconclusive [activator, full curve, poor fit]",–
Oc1ccc(/C=N\Nc2cc(N3CCOCC3)nc(N3CCOCC3)n2)c(O)c1,–,inactive: -11.4%
CCOC(=O)c1cc2c(c(CSc3nc4ccccc4c(=O)n3Cc3ccco3)c1)OCOC2,"inconclusive [inhibitor, partial curve, poor fit]",–
CCOC(=O)Cc1csc(NC(=O)CN(C)S(=O)(=O)c2cccc3cccnc23)n1,"inconclusive [inhibitor, single point]",–
O=C1c2ccccc2C(Nc2ccc(Cl)cn2)N1Cc1ccccc1 (configuration not stated),"inconclusive [inhibitor, single point]",–
CC1(C)CC(C2N3CC4(C)CN2CC(C)(C3)C4=O)CCO1 (configuration not stated),"inconclusive [inhibitor, single point]",–
O=C(Nc1ccc(Br)cc1)c1cccc(N2C(=O)C3C4CCC(C4)C3C2=O)c1 (configuration not stated),–,inconclusive: -16.7% [inhibitor]
Fc1ccccc1/C=N/Nc1nc(N2CCCCC2)nc(N2CCCCC2)n1,–,inconclusive: 15.6% [activator]
O=C(Cc1cccs1)Nc1ccc(S(=O)(=O)N2CCCCC2)cc1,"inconclusive [inhibitor, single point]",–
Cc1cc(C)c(S(=O)(=O)CCC(C)C)c(=O)[nH]1,"inconclusive [inhibitor, single point]",–
CCc1c(C)c2ccc(O)c(CN(C)C)c2oc1=O,"inconclusive [activator, partial curve]",–
CC(=O)Nc1ccc(S(=O)(=O)Nc2nc3ccccc3s2)cc1,–,inconclusive: -16.5% [inhibitor]
C/C(=N\NC(=O)c1ccccc1O)C1C(=O)c2ccccc2C1=O,"inconclusive [inhibitor, single point]",–
COc1ccccc1-n1c(C)nnc1SCC(=O)Nc1cccc(C(C)=O)c1,"inconclusive [inhibitor, single point]",–
CCC(C)n1c(=N)c(C#N)cc2c(=O)n3cc(C)ccc3nc21 (configuration not stated),–,inconclusive: 6.92% [activator]
Oc1cnc2ccccc2c1CN1CCOCC1,"inconclusive [activator, partial curve]",–
CCOCCCNS(=O)(=O)c1cc(Br)cc2c1N(C(=O)C1CC1)CC2,–,inconclusive: -18.5% [inhibitor]
Cc1cccc(-c2nc(Nc3ccc(N4CCOCC4)cc3)c3ccccc3n2)c1,–,inactive: -11%
COc1cc(C(=O)NC(=S)Nc2csc(-c3ccc(F)cc3)n2)cc(OC)c1OC,"inconclusive [inhibitor, partial curve]",–
CCOc1ccccc1N1CC(C(=O)N2CCc3ccccc3C2)CC1=O (configuration not stated),"inconclusive [inhibitor, single point]",–

SMILES,Potency,"activity change, negative = inhibition"
Cc1nc(N2CCC(C)CC2)c2nnn(Cc3ccccc3)c2n1,–,inactive: -0.306%
COc1ccc(-c2cc(C(F)(F)F)n3nc(N)nc3n2)cc1,"inconclusive [activator, partial curve]",–
COc1ccc(C2=NN(c3nc(C(=O)O)cs3)C(O)(C(F)(F)F)C2)c(OC)c1 (configuration not stated),–,inconclusive: 16.5% [activator]
COc1ccc(OCC(=O)Nc2ccccc2O)cc1,"inconclusive [inhibitor, partial curve, poor fit]",–
CCSc1ccccc1C(=O)Nc1ccc2c(c1)OCO2,–,inconclusive: 7.43% [activator]
CCOC(=O)Cc1cc(-c2ccc(OC)cc2)nc2ccc3ccccc3c12,"inconclusive [activator, single point]",–
CCn1c(SCC(=O)NC(=O)Nc2ccc3c(c2)OCCO3)nnc1-c1cccs1,"inconclusive [inhibitor, single point]",–
N#C/C(=C\C=C\c1ccccc1[N+](=O)[O-])C(=O)NC1CCCCC1,"inconclusive [inhibitor, single point]",–
CCc1c(C(=O)NNC(=S)NCC2CCCO2)csc1C (configuration not stated),–,inconclusive: -22.3% [inhibitor]
O=C(NCCc1ccccc1)C1CCN(S(=O)(=O)c2ccccc2)CC1,"inconclusive [inhibitor, full curve, poor fit]",–
CCOc1ccc(N2CC(C(=O)NCCN3C(=O)S/C(=C\c4cccnc4)C3=O)CC2=O)cc1 (configuration not stated),"inconclusive [inhibitor, single point]",–
COc1cc(C2NC(=O)NC(C)=C2C(C)=O)ccc1O (configuration not stated),"inconclusive [inhibitor, partial curve, poor fit]",–
Cc1ccc(-c2cc(C(F)F)nc(NCc3cccs3)n2)cc1,–,inconclusive: 17.7% [activator]
Cc1cc2nc3c(c(=O)n2[nH]1)CCCC3,"inconclusive [inhibitor, single point]",–
CCOC(=O)N1CCN(c2nc3c(c(=O)[nH]c(=O)n3C)n2Cc2ccccc2Cl)CC1,"inconclusive [inhibitor, full curve, poor fit]",–
CC(=O)c1c(C)oc(C)c1CSCc1ccc(C(=O)O)o1,"inconclusive [inhibitor, partial curve]",–
CCc1ccc(C2=NN(c3ccc(S(N)(=O)=O)cc3)C(c3ccc(F)cc3)C2)cc1 (configuration not stated),"inconclusive [activator, partial curve]",–
CCC(=O)Nc1ccc(C(=O)OCc2ccccc2)cc1,"inconclusive [inhibitor, single point]",–
Cc1csc(SCC(=O)NC(=O)NCc2ccccc2)n1,"inconclusive [inhibitor, partial curve]",–
CN(C)c1nc(Oc2ccc(OCCOc3ccccc3)nn2)nc(N(C)C)n1,"inconclusive [activator, full curve, poor fit]",–
C=CCn1cc(-c2cccc(C(F)(F)F)c2)cc(C#N)c1=O,"inconclusive [activator, partial curve]",–
